This is an account of results in patent US20200149053A1, “MICROORGANISMS PROGRAMMED TO PRODUCE IMMUNE MODULATORS AND ANTI-CANCER THERAPEUTICS IN TUMOR CELLS” (Synlogic Operating Company, Inc., priority 2017, published 2020).

Assay [1] addresses T1, mCD47 (Mus musculus, UniProt Q61735).
T1 sequence (Q61735 19-303): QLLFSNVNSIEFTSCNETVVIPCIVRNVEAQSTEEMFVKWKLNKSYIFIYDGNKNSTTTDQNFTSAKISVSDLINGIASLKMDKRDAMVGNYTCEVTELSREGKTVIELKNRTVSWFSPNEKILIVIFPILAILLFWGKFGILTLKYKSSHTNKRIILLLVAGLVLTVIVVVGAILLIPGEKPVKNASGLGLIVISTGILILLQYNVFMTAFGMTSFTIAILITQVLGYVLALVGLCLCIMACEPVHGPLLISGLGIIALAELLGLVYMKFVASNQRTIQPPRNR
Kind of assay: SIRPα/CD47 ELISA binding assay, mCD47 coating. The conditions noted are these: for SIRPα/CD47 ELISA signal, coating material IgG / SIRPα/CD47 ELISA signal, coating material PBS: control coating; for SIRPα/CD47 ELISA signal, coating material mCD47: secreted protein in supernatant.

The subject of assay [2] is anti-SIRPα antibody. The assay is described as follows: SIRPα/CD47 ELISA binding assay, Anti-mSIRPα coating. As to conditions: secreted protein in supernatant. (In general: An ELISA detects its analyte on a solid surface through an enzyme-linked reagent.)

B1: Secreted anti-mCD47 scFv: anti-mCD47 scFv secreted by the genetically engineered E. coli Nissle (protein)
scFv: QVKLLQSGAALVKPGASVKMSCQASGYSFTDYWVTWVKQSHGQSLEWIGEIYPSNTVTNFNDNFKGKATLTVDKSTSTAYMELSRLTSEDSAIYYCTRIGNSGYRVGWFIYWGQGTLVTVLSGGGGSGGGGSGGGGSDTVLTQSPALAVSPGERVTISCKASESVSSHMHWYQQKPGQQPKLLIYKASNLASGVPARFSGSGSGTDFTLTIDPVEADDTATYFCQQGWNGPFTFGAGTRLELKRADAAGSGELGGSGKPIPNPLLGLDSTGSGHHHHHH
Regarding B1, in assay [1], the “SIRPα/CD47 ELISA signal, coating material IgG” value came to 0.067; the “SIRPα/CD47 ELISA signal, coating material PBS” value was 0.053; the “SIRPα/CD47 ELISA signal, coating material mCD47” value amounted to 0.527.

B2: Secreted WT mSIRPα: wild type murine SIRPα secreted by the genetically engineered E. coli Nissle (protein)
chain: KELKVTQPEKSVSVAAGDSTVLNCTLTSLLPVGPIRWYRGVGPSRLLIYSFAGEYVPRIRNVSDTTKRNNMDFSIRISNVTPADAGIYYCVKFQKGSSEPDTEIQSGGGTEVYVLAKPSPPEVSGPADRGIPDQKVNFTCKSHGFSPRNITLKWFKDGQELHPLETTVNPSGKNVSYNISSTVRVVLNSMDVNSKVICEVAHITLDRSPLRGIANLSNFIRVSPTVKVTQQSPTSMNQVNLTCRAERFYPEDLQLIWLENGNVSRNDTPKNLTKNTDGTYNYTSLFLVNSSAHREDVVFTCQVKHDQQPAITRNHTVLGFAHSSDQGSMQTFPDNNATHNWN
modifications: left off: small tags and cut ends
Turning to B2, in assay [1], the “SIRPα/CD47 ELISA signal, coating material IgG” value came to 0.056; the “SIRPα/CD47 ELISA signal, coating material PBS” value turned out to be 0.059; the “SIRPα/CD47 ELISA signal, coating material mCD47” value came out at 1.069. Besides, the “SIRPα/CD47 ELISA signal, coating material Anti-mSIRPα” value in assay [2] is 0.829.
